# Data: the supplement of paper PMC3334620
# In all, about 33,000 sequences were measured (“E-score (-0.5 to 0.5)”: median about -0.036, highest 2% from about 0.37 on). The list shows a part of the results.
# Target: T1, Yer064c (UniProt P40041)
# T1 sequence: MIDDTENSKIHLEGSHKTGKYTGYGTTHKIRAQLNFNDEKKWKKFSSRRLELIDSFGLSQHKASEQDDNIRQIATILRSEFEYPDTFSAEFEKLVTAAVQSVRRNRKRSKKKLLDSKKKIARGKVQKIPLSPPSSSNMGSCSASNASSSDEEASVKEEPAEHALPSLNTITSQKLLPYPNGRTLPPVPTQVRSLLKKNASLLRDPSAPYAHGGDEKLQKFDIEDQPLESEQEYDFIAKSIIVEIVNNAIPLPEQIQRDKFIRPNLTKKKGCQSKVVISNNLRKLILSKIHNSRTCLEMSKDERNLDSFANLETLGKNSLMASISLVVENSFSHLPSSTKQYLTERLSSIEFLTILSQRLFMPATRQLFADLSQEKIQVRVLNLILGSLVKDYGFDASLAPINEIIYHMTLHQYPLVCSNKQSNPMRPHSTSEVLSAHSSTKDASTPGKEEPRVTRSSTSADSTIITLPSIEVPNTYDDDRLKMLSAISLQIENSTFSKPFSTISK
# Assay: PBM E-score (8-mer binding enrichment) (E-score (-0.5 to 0.5)); higher = stronger / more preferred TF binding; most listed sequences are background and not binding sites
# Conditions: protein concentration: 200 nM; construct: GST-full length
# Experimental: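 Universal 'all 10-mer' protein binding microarrays (Agilent AMADID 015681) probed with GST-tagged S. cerevisiae TFs (full-length or DBD) made by in vitro transcription/translation (PURExpress), about 100-200 nM. Bound TF was detected with fluorescent anti-GST. Each ungapped 8-mer (which stands for itself and its reverse complement) is scored by the PBM enrichment score (E-score), a modified Wilcoxon-Mann-Whitney statistic from -0.5 to +0.5, computed with the Universal PBM Analysis Suite. Scale: above 0.35 generally sequence-specific binding.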
row,Sequence,PBM E-score
1,CTGTTTGA,0.176
2,CGCTGTTC,-0.0614
3,GACTTCGC,0.342
4,AGTCCCTG,0.0758
5,CCCTAGAC,-0.042
6,AATGTAGG,-0.361
7,CTAATCCA,-0.121
8,CAGAACCG,-0.104
9,GAACTATC,-0.0607
10,TAGCCCAA,-0.0904
11,CAACAAAC,-0.0194
12,GTGCACAC,-0.0262
13,ACACTCTG,-0.0556
14,ATAGCGCG,-0.177
15,CCGCCACC,-0.187
16,ACTCTGCG,0.204
17,GCTTCTCC,-0.287
18,TTCGCCAA,0.00308
19,CTGGTACC,-0.164
20,CGTCAATA,-0.192
21,ATGCGGAC,-0.125
22,CATCGGCG,-0.0687
23,ACAGTGAC,0.315
24,GGTACCAC,-0.11
25,ATTTGGCG,-0.116

row,Sequence,PBM E-score
1,AGACTCGA,0.292
2,ATAGTACC,-0.0556
3,CTCTGGAC,0.0121
4,CTCGGCTA,-0.137
5,GCATAAGA,0.0166
6,AATACCAC,-0.172
7,ATTGCCAG,-0.0482
8,AAGTCAGC,0.422
9,AGCACTGC,-0.184
10,AAATTTTG,-0.0478
11,ACTGTCCT,0.168
12,AATTTCGG,-0.202
13,GGTTAGTA,0.124
14,AAAAGTAC,0.0119
15,ACCCCTTG,-0.213
16,ACTAGTTC,0.167
17,ATGTTACA,-0.0164
18,CCAGATTA,0.0415
19,ATATACAG,-0.00932
20,CACTGTTC,-0.0848
21,TAAGTTCA,0.0693
22,CTAGCAGC,-0.117
23,GCGAACGC,-0.058
24,CAGCTTGC,-0.25
25,GCAGTCTA,0.132

row,Sequence,PBM E-score
1,GCATCGTA,-0.187
2,AGTTCGGG,-0.0826
3,CGCAGTAA,-0.0527
4,GCAGCTAA,-0.15
5,GAAATTAC,0.0771
6,ATCTGCAG,0.0941
7,CGCGACCG,-0.0473
8,GAGAGCGC,-0.354
9,ACGCCTAT,-0.228
10,TCGACTCA,0.435
11,CAAGCCGG,-0.108
12,AAGCTTTC,-0.139
13,ATTTCCTA,0.128
14,TCAGCAAA,0.0671
15,ATCCGTCA,-0.0657
16,AAGTTTCT,0.0369
17,ACGGGCGG,-0.296
18,AGCATCGG,-0.204
19,GGTTTCCA,-0.211
20,CGTTAGCA,0.0131
21,GACGAAAA,0.0804
22,AGGATCTG,-0.126
23,CTTAGCCC,-0.0619
24,AGCCGGCT,-0.331
25,ACTGCTAC,0.0279

row,Sequence,PBM E-score
1,AGTTAGTA,0.196
2,GTTGTTAA,-0.0114
3,GCTATAAA,-0.0214
4,CTTAGCAC,0.032
5,CCTGAATC,0.297
6,TATGGAGA,-0.131
7,AGGTACCT,-0.0896
8,CGTTCGTA,-0.0921
9,ACGTACCG,-0.0721
10,GAATGATC,0.0514
11,CGTAAGAG,0.144
12,ACCATACA,-0.0449
13,GCTAAGAA,-0.0294
14,AACCTACG,-0.26
15,CAATATGG,0.0763
16,CTCGACAA,-0.101
17,GTTTTGGA,0.197
18,ACCCGTGG,-0.162
19,ATCGATAA,-0.016
20,ATAGATGA,0.279
21,ATCCTTAC,-0.0116
22,CAGAGCCA,0.00676
23,AGGCTTTA,-0.0519
24,CGGGCAAA,-0.112
25,ACACGGAA,0.105

row,Sequence,PBM E-score
1,ATAAATAA,0.133
2,CAATGGAA,0.00249
3,GTGAGCCA,0.344
4,ATAAGTAA,0.196
5,CCTCTTCA,-0.213
6,CTTTACTA,0.12
7,CCGTGAAA,-0.0073
8,CGGGATCC,-0.206
9,ACGGTTTG,-0.119
10,GCCCCTGA,-0.0434
11,AACTTGCA,-0.132
12,AGCGTGGG,-0.262
13,AGATTATG,0.125
14,AATTAGCC,-0.034
15,CACATGCG,0.045
16,ACATCATA,0.107
17,CCATCCCC,-0.243
18,TCGTCACA,-0.0543
19,AGAAAAAC,-0.162
20,CTCTTAGA,0.0953
21,ATTACGAG,0.121
22,CCGGTCCC,-0.291
23,TACCAAAA,-0.00281
24,CATTCTTC,-0.0285
25,GTAACGAC,0.00696

row,Sequence,PBM E-score
1,ATGGGCTG,-0.0763
2,AGATACGA,0.0569
3,CACTAGCA,-0.121
4,CAGGGACG,-0.169
5,TCGGCCAA,-0.185
6,CGAATGGC,-0.0891
7,TAGCTCCA,-0.0907
8,AGTGGCGG,-0.0561
9,CGAACCGA,-0.0881
10,TCGTGCCA,-0.0996
11,GGCCACGA,-0.03
12,CCCACTGC,-0.0844
13,CAGCCCAA,-0.0932
14,CCACTTTC,-0.201
15,AATCACCA,0.374
16,AACTAAAT,0.208
17,ACAGGCCC,-0.39
18,GTGGAGGA,-0.0633
19,CTGACTGC,0.348
20,AGCTGGTA,-0.173
21,CTCAGTCA,0.436
22,GGAAATTA,-0.0635
23,GACACGCC,-0.174
24,ATTAGAGC,0.034
25,ACATCGAT,0.00682

row,Sequence,PBM E-score
1,TACTCAGA,0.241
2,ACTAAGGA,0.128
3,CGGATAGC,-0.168
4,TCGCCCGA,-0.0643
5,GATTTGAA,0.121
6,CCGTCAAA,-0.179
7,GAGAGCCC,-0.232
8,ACAGTCTG,-0.0791
9,GAGCCAGA,0.113
10,AACTCGCT,0.068
11,CAAATTTC,0.0245
12,TACGATAA,0.0301
13,AGCTCGCA,-0.0722
14,GACCACTC,-0.0747
15,AGCATCAT,-0.118
16,ACATACCG,-0.0792
17,CTCGCGAA,-0.116
18,AAAGGAAG,-0.0963
19,GCCTGATA,-0.0848
20,GTACCTCA,0.118
21,CTAGGCAC,-0.0402
22,CCGAATTC,-0.141
23,GACATGAC,0.33
24,GGTAATTA,0.0662
25,CGACGGCA,-0.251

row,Sequence,PBM E-score
1,ATCACGGG,0.0804
2,AAGCTCTA,0.0199
3,GGAAGTAA,-0.12
4,CGCTGGAA,-0.192
5,CATTCCCC,-0.116
6,ACCATGTC,0.0414
7,CGGTTTTA,-0.0271
8,CCTAAGCA,-0.00923
9,GCGTGACA,-0.102
10,CTGCTATA,-0.0966
11,GAAATGCA,0.00611
12,GCGCTGCC,-0.264
13,CAATCGAG,0.0155
14,CAAAAGGG,-0.0394
15,TCTGCTCA,-0.0594
16,GAAAAGAC,0.286
17,CGCCTTAC,-0.129
18,GACAAATC,0.00373
19,CTAAGACA,0.0565
20,AGGCCCTG,-0.199
21,GAAAAAAA,-0.124
22,CCGGTTTC,-0.127
23,CGCGCTGA,-0.011
24,AGCAGTCC,-0.0176
25,GACATTCA,0.178

row,Sequence,PBM E-score
1,GTACACGA,-0.00922
2,CCGTATGA,0.281
3,TTACTGAA,0.0197
4,ATAGATAC,-0.173
5,GTCATAAC,0.326
6,AGGCCAGA,-0.398
7,CCGGTTTA,-0.155
8,CCACCGGG,-0.218
9,CATTTAAA,0.206
10,GAATCATA,0.464
11,AAAAGTGC,0.0431
12,CATCACTA,0.0474
13,CTAAACAG,0.0256
14,CGGTGACA,-0.069
15,AACATGTG,0.137
16,CATAGCAC,8e-05
17,CCCCGACG,-0.136
18,AACCCGCG,-0.0643
19,CTAAAGAG,0.142
